Measurements: the supplement of paper PMC3334620
Over roughly 33,000 sequences, “E-score (-0.5 to 0.5)” has its median near -0.056; the highest 2% begin near 0.38. The list shows a part of the results.

These sequences were tested against Stb4 (UniProt P50104) (assay: PBM E-score (8-mer binding enrichment) (E-score (-0.5 to 0.5)); higher = stronger / more preferred TF binding; most listed sequences are background and not binding sites). Conditions: protein concentration: 200 nM; construct: GST-DNA-binding domain.
In short: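 Yeast transcription factors carrying a GST tag, as full-length proteins or DNA-binding domains, were produced by PURExpress in vitro transcription/translation. About 100-200 nM protein was applied to universal all-10-mer Agilent arrays, double-stranded by primer extension on fresh or once-stripped slides. Bound protein was detected with fluorescent anti-GST, and scans were normalised with masliner. The Universal PBM Analysis Suite gave each ungapped eight-base word, pooled with its reverse complement, an E-score, a modified Wilcoxon-Mann-Whitney statistic.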

Sequence	PBM E-score
AGGTGACG	-0.178
AAGAGTCG	0.0179
CGCGCGTC	0.0521
CGCAGCGA	-0.0944
ATATGAGG	-0.0378
ATTGTCGC	-0.0208
GAAACGGA	0.283
GGCCACAA	-0.217
CGAAGCCC	0.109
AAGCAGTG	-0.0258
CGCAGGCC	-0.0264
CCGGCACG	0.293
GGGTCCCA	-0.0319
AAAGCTAG	-0.296
CTCGAGGC	-0.0834
CGGCTAAG	0.321
CCTCTATA	-0.264
ACGAAAAA	-0.189
CCCCGCAG	0.15
GTCGAACA	-0.044
ACTTTGAA	-0.112
CAGTAGTC	-0.21
CACCGCTC	0.0568
ATAAGGGC	0.0162
ATCACCAC	-0.135

Sequence	PBM E-score
AGGCAAAC	-0.216
ACTTAGCG	-0.0252
GTGCACGA	-0.264
CCTTCTCG	-0.0615
CAGAGAGG	-0.216
GGAGTGAC	0.0112
ATGATATG	-0.0607
AAGTCTAG	0.00294
ACCATGAC	-0.0558
ATTTGACC	-0.0772
ACACAGTA	-0.256
AAGACAAC	0.0208
GCAAGGAC	0.0354
GCACCTGA	-0.329
GCGGAAAA	0.332
CTGATATC	0.136
AATCTAAA	0.0391
AGATGAGA	-0.103
ACCCTGAT	-0.0752
ACAGAACT	-0.0427
AACGATGG	-0.0969
CTTCGTGA	-0.177
ATGGGTGC	-0.114
AGGAGTCC	-0.07
AAACACTC	-0.0121

Sequence	PBM E-score
AGGATCTC	-0.0651
AGCACACA	-0.273
CTGCACAA	-0.153
CAACCGAC	0.215
GACTGTTA	-0.157
TCTGCACA	-0.123
AAGCAGGC	-0.164
CTGTTCCA	-0.252
TCGGCACA	0.441
GACGGCCC	0.0144
ACCCGGCT	0.36
ATCATCCG	0.414
CCGAGTTA	0.34
CATCCTTA	-0.169
AGAAGGGG	-0.169
CCGCCTCA	0.0771
CCTGCGCG	0.0544
CTCTTGGA	-0.105
CCAGGGAG	-0.353
ATTGACTA	-0.123
GGCCGTCA	0.00318
GAAATCTC	-0.00294
ACGCTCTG	-0.323
CCACCATA	0.0403
ATTTGATG	-0.0886

Sequence	PBM E-score
GTCTCCCA	-0.148
ACGTTAAC	-0.137
CGAAGATA	0.282
ACATTCAC	-0.0148
AATCATGA	-0.211
CCTGCTCC	0.0776
AGTTTGGC	-0.0624
TCAAGACA	0.0169
CCAAGTCA	-0.11
AATAAAAG	-0.11
AAAAACTT	-0.0512
ACCAGATG	-0.152
CCAGACCC	0.0209
CAGATTCG	0.139
CGGGCCCC	0.119
AGGCGCCA	-0.153
GGTGACAC	0.0509
CCGAGGGA	0.386
GGGACTCA	-0.149
TCGCACGA	-0.207
CACACGGG	0.145
AAGCAAAA	-0.181
GCTTCATA	-0.0562
CTGTGGGA	-0.145
CAAATACA	0.00604

Sequence	PBM E-score
GCGATAGC	-0.131
TAGAGAAA	-0.0274
CTAATTTC	0.0943
CAAACAGG	-0.09
CAGCGGGC	0.0491
CCGCCCCC	0.154
AATACAAG	-0.012
CAGCTCCA	-0.265
CTCGAAAC	-0.128
AATGGAGC	-0.222
GGTCCGAC	0.292
GGGTTAAA	0.146
CTTCTGTA	-0.112
CAGTTTCG	0.0607
GCGACCGA	0.126
AACTTCCC	0.0609
ATCGATCC	0.213
CATGCGCG	0.0492
ATGCTTGG	-0.187
CTACGAGA	-0.138
ATTTTTCA	0.0861
AGAAGAGA	-0.162
AAGAAGTC	-0.0434
CCTCCCCG	0.231
TAACCGCA	0.154

Sequence	PBM E-score
CGATCAAA	0.0532
AGGAATTA	0.0103
ATTTCCTC	0.0855
CATAGCGG	-0.0151
AACTCGTA	-0.0926
CGCTCTGC	-0.0501
AAGTTTGC	-0.0647
CGAGAAAG	0.107
CGAGCAGA	0.161
GCCGCGGC	0.354
AACGCACA	-0.119
ATCATGGA	-0.246
TAGGAACA	-0.118
GTTCCCCA	-0.244
AACGCGTT	-0.0196
GATGTGAA	-0.0208
AAACTTCC	0.269
GATATACC	0.155
AGATATCA	-0.138
TGGTATAA	-0.0678
GAACTTCC	0.22
CATAGCGC	0.00119
CATAACGC	-0.121
TAAGCTCA	-0.203
AAGCTCAG	-0.346

Sequence	PBM E-score
AAACGAAA	0.0721
CGTTTGAG	-0.109
CCACACGA	-0.223
GAAGCAAC	-0.0339
CGCGGTGA	-0.146
ACCCTTAT	-0.222
CCCCCGGA	0.176
AATCGCGC	-0.0862
AAAATTCG	0.0918
CCATTCCA	-0.00328
AGGAGGGC	-0.187
CTGGGAGC	-0.132
CGGAGACA	0.209
CCATACCC	0.223
GGCACCGA	0.18
CTGTGGGC	-0.0997
AAAACATC	-0.036
CAACAGAG	-0.00805
AACGCGTC	0.0116
GCGAAATA	0.0947
ACCGCATC	0.239
CGCGATTC	0.143
AGATCACC	-0.0177
AGTACAGA	-0.122
TACCGGGA	0.307

Sequence	PBM E-score
AACATTAA	-0.0786
ACACTCGT	-0.315
CTCATCTA	-0.116
CGAATCAG	-0.0679
AGCTCACC	-0.0311
AGTCCGAG	0.371
ACAACCAT	0.0286
AGCACTGG	-0.166
TACTACTA	0.207
CCACTGAG	-0.217
GATCCAAA	-0.0151
AATGTCCA	-0.253
CAAATTCA	-0.118
ACACCACT	0.0986
CCACCCGC	0.194
AACAAGCT	-0.133
GTTTGGGA	-0.215
GTAATTGA	0.00856
GACCGGGA	0.301
CTAGCTAC	-0.189
ATGGCAAT	-0.0777
GATTTACC	0.261
AAGAGGAG	0.0222
ATACCTAG	-0.119
GAGTTATC	0.196

Sequence	PBM E-score
CACCTTTA	-0.00588
AGTGTGTA	-0.127
CATCCCAC	0.0386
GATTCAAA	-0.0702
ACGCCCCG	0.172
CCTGACAC	-0.0977
CGGCGCCA	0.11
CAGAGCCG	0.237
GATAGTGC	0.0586
ACTAATGG	0.0197
ACCGTCGC	0.188
ACGCATAC	-0.00984
ACATGACT	-0.282
CGCAGTCA	-0.185
ACCTGTGG	0.0316
CTATTGCA	-0.0693
CTCAGGAG	-0.226
ACGGCTGC	0.112
CACCAGTG	-0.322
CCATCGAA	-0.16
CAGACTAG	-0.358
CGCTGGAC	-0.131
AGTTTCAC	-0.256
CAGTTCCC	0.203
CAGTTGGG	-0.244

Sequence	PBM E-score
ATAATCGA	-0.0635
ACTTCCGC	0.379
AGAGTGGG	-0.103
ACATTAAT	-0.0324
CTTCAATC	0.0447
CGGAGGGC	0.126
ATAACCCA	-0.0904
GATTGTCA	0.0614
CCGTTGGA	0.00392
AGAGAGAG	-0.38
AACCTAGC	0.0506
CAATTCCC	0.0982
CATTGCAC	-0.0371
TGCGTCAA	-0.147
TCCGACGA	0.386
AGAACCCT	-0.113
CAAATAGA	-0.0992
CTCCTAGA	-0.242
AGCTGTTA	-0.218
GTACAAGA	-0.191
ATTGAGCA	-0.234
AAGCTGTA	-0.0663
ACCCTCGA	-0.165
AAAATGAC	0.0259
CTCTGTGA	-0.33

Sequence	PBM E-score
CGTACCAA	-0.0228
ACGTGATG	-0.0799
ACCACGAA	-0.214
GTGGACGA	-0.172
AAACAGCG	-0.148
AGAGCCGA	0.39
AGCTTTCC	0.2
ATCCGAAC	0.475
AGGTGAGA	-0.0994
GGCTATTA	0.106
CTAGTACA	-0.126
AGCCGTCG	0.145
AGGGAAGA	-0.277
ACTGCGCG	-0.101
AAATACTG	-0.168
CACGGAGG	0.134
CAAGTATA	-0.0492
CATACGGG	0.152
ATGGCAGC	-0.171
AGGAAAAC	-0.0217
CTCACTGC	-0.0364
TTTAAAAA	-0.0431
GACTATTA	-0.12
ATAACGAT	-0.0395
AGGGAATC	-0.127

Sequence	PBM E-score
CATGTAGG	-0.0845
ATGGATAA	0.024
TCGACAAA	-0.0114
GCTAGCCC	-0.0688
ATTTTCAG	-0.0712
GGTAAGAA	0.118
ATCCTCTA	-0.0427
AGTAATGC	0.0258
AACCGAGA	0.407
ATTCGTAG	0.0347
CACGCGGG	0.12
CGAGGCTC	0.134
GTAAACCA	0.204
CTAGCGGA	0.0447
CTCCCCAC	-0.184
GGATATTA	0.292
ACCTTACG	-0.111
AGATGCAT	-0.192
CAACTCAG	-0.192
ATGGCTAG	-0.0941
ATAGCTTA	-0.106
AACGTCGG	0.297
CATGATGC	-0.212
AGGAGACC	-0.188
GCAGCCCC	0.00147

Sequence	PBM E-score
ATGGCGCG	0.0151
CGTGTGCC	-0.105
CCGTGCGC	0.222
ATCCAGAG	-0.166
GTGCAAAA	-0.231
AGTCAGCG	-0.00255
GAACCACC	0.218
CTTGACGC	-0.109
TCCCCTAA	-0.0984
TCGCAAGA	-0.118
ACTGCTGC	-0.137
GTCGGAGA	0.294
CACCCAAA	-0.0471
CTGCGTAA	-0.0547
ACCAATAA	-0.204
CTTTTGCA	-0.181
CCATAGGA	-0.392
TCCAGGAA	-0.03
AAATTCAG	-0.017
AGCCGAAT	0.426
ACGTATTC	0.0489
AACGCTGG	-0.181
CCTTATCG	0.118
GCTTCGCC	-0.243
AGGTACGC	-0.0999

Sequence	PBM E-score
ACCAGCTG	-0.268
ACTTGCGG	0.0786
TACGTACA	0.0359
AAGTCAGG	0.0343
GGCCCCAA	-0.136
CGCTAGGC	-0.118
CATATCAA	0.00716
AAGATAGA	-0.183
CAGGTATA	-0.148
GAGGTCCA	-0.071
CAAACTGG	-0.167
GCAGTAGC	-0.16
AACGAATA	-0.0723
CACCCTCG	0.0812
ACGGGGAT	0.0997
CTTGGGTC	-0.202
AGGCAATA	-0.11
TTGGAAAA	-0.0054
AGCTGTTG	-0.071
